{"source": "paper PMC4336329", "about": "(PLoS ONE, 2015)", "note": "In all, about 310,000 compounds went through this assay and about 2,200 (0.71%) showed an effect of 50% or more. The effect is printed as a negative number. The list shows a part of the results.", "data": [{"molecular_target": "human ether-à-go-go-related gene (hERG) potassium channel (human, UniProt Q12809)", "sequence (Q12809 whole entry, looked up)": "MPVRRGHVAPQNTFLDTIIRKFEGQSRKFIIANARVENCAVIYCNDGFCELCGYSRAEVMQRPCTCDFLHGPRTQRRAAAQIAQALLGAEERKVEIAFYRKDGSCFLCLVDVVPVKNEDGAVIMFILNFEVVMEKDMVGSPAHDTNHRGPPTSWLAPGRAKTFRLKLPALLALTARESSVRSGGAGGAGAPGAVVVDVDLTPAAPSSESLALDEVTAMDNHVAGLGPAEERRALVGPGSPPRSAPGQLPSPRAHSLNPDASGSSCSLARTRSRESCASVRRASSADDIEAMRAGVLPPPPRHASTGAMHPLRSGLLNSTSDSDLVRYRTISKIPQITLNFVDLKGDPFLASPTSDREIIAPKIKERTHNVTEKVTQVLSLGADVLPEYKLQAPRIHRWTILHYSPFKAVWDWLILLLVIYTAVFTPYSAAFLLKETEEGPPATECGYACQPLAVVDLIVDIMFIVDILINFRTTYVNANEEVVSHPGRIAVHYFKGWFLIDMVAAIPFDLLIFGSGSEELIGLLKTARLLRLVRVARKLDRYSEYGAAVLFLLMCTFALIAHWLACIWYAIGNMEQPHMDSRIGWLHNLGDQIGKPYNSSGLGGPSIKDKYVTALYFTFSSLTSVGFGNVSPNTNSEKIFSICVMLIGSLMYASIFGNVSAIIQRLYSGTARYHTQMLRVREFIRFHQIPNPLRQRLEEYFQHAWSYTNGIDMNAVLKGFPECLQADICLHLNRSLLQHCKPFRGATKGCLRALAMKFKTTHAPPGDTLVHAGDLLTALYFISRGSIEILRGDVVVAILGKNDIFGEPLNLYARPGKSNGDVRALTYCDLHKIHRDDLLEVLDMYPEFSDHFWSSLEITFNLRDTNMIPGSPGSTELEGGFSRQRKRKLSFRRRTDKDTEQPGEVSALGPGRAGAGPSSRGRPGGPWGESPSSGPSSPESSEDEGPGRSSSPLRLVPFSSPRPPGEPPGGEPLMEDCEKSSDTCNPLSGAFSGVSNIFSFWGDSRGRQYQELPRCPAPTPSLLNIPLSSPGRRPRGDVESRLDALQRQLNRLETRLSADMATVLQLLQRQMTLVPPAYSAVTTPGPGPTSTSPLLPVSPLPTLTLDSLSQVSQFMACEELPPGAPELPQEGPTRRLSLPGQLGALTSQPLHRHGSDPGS", "test": "primary screen, population patch clamp on CHO cells stably expressing hERG", "units": {"hERG current change (%, negative = inhibition) at 1uM": "%"}, "values": [{"smiles": "COc1ccc(NC(=O)C(=O)NCC2CCCN2S(=O)(=O)c2cccs2)cc1", "note": "(centres unmarked)", "hERG current change (%, negative = inhibition) at 1uM": 11.4}, {"smiles": "C/C(=N\\NC(=O)Cn1nc(C)c(Br)c1C)c1cccs1", "hERG current change (%, negative = inhibition) at 1uM": 1.82}, {"smiles": "CCCCN(C(=O)CSCC(=O)Nc1ccc(C)cc1)c1c(N)n(Cc2ccccc2)c(=O)[nH]c1=O", "hERG current change (%, negative = inhibition) at 1uM": 14.6}, {"smiles": "OC(c1nnc(-c2ccccc2)o1)c1cccs1", "note": "(centres unmarked)", "hERG current change (%, negative = inhibition) at 1uM": 8.42}, {"smiles": "Br.COc1ccc(C2=CSC3=NCCN23)cc1", "hERG current change (%, negative = inhibition) at 1uM": -0.998}, {"smiles": "C=C1C[C@@]23CCC4[C@@](C)(CCC[C@@]4(C)C(=O)O)C2CC[C@]1(O)C3", "note": "(some centres unmarked)", "hERG current change (%, negative = inhibition) at 1uM": 11.8}, {"smiles": "COc1ccc(Cl)cc1S(=O)(=O)Nc1ccncc1", "hERG current change (%, negative = inhibition) at 1uM": 9.15}, {"smiles": "COc1cc(CC(=O)OCC(=O)NC2CC2)cc(OC)c1OC", "hERG current change (%, negative = inhibition) at 1uM": 17.9}, {"smiles": "COc1cccc(OC)c1C(=O)Nc1cccc(-n2cnnn2)c1", "hERG current change (%, negative = inhibition) at 1uM": 10.4}, {"smiles": "Cc1ccc(NC(=S)N2CCN(C3CCCCC3)CC2)cc1", "hERG current change (%, negative = inhibition) at 1uM": -10.7}, {"smiles": "CCOC(=O)C1C(c2cccc([N+](=O)[O-])c2)C2C(=O)NN=C2CC1(C)O", "note": "(centres unmarked)", "hERG current change (%, negative = inhibition) at 1uM": 15.3}, {"smiles": "Cc1ccc(-c2csc(Nc3ccc(C(=O)O)cc3)[n+]2Cc2ccccc2)cc1.[Br-]", "hERG current change (%, negative = inhibition) at 1uM": 9.84}, {"smiles": "CCn1ccnc1CN1CCCC(C(=O)c2ccc3cc(OC)ccc3c2)C1", "note": "(centres unmarked)", "hERG current change (%, negative = inhibition) at 1uM": -0.928}, {"smiles": "COc1cccc(C(=O)C2CCCN(C/C=C/c3ccccc3OC)C2)c1", "note": "(centres unmarked)", "hERG current change (%, negative = inhibition) at 1uM": -2.82}, {"smiles": "CCOC(=O)C1=C(c2ccccc2)O/C(=C(\\C(=O)OC)C(F)(F)F)S1", "hERG current change (%, negative = inhibition) at 1uM": 8.55}, {"smiles": "CC1(C)CC(Nc2ccc(Nc3ccccc3)cc2)CC(C)(C)N1", "hERG current change (%, negative = inhibition) at 1uM": 11}, {"smiles": "O=C(Nc1nnc(S(=O)(=O)N2CCOCC2)s1)c1cccc(Br)c1", "hERG current change (%, negative = inhibition) at 1uM": 20.4}, {"smiles": "CN1CCN(C(=O)C2=C[C@@H](c3csc4ccccc34)C[C@@H](OCCCCO)O2)CC1", "hERG current change (%, negative = inhibition) at 1uM": -5.03}, {"smiles": "CCOc1ccc(CCNC(=O)CCc2nnc3ccc(N4CCCCC4)nn23)cc1OCC", "hERG current change (%, negative = inhibition) at 1uM": 5.98}, {"smiles": "CCN(C(=O)CN1C(=O)S/C(=C\\c2ccc(Cl)cc2)C1=O)C1CCS(=O)(=O)C1", "note": "(centres unmarked)", "hERG current change (%, negative = inhibition) at 1uM": 9.44}, {"smiles": "O=c1cc(CO)oc(C(Nc2cccc(C(F)(F)F)c2)c2ccccn2)c1O", "note": "(centres unmarked)", "hERG current change (%, negative = inhibition) at 1uM": 15.8}, {"smiles": "Cc1nnsc1C(=O)Nc1ccc(Cl)cc1Cl", "hERG current change (%, negative = inhibition) at 1uM": 12.4}, {"smiles": "O=C(Nc1ccc(-c2nc3ccccc3o2)cc1)c1cc(-n2cnnc2)ccc1Cl", "hERG current change (%, negative = inhibition) at 1uM": 6.74}, {"smiles": "O=C(Nc1ccc(F)cc1)c1cc(Cl)sc1Cl", "hERG current change (%, negative = inhibition) at 1uM": -5.88}, {"smiles": "CCN(CC(=O)N1CCCC1)S(=O)(=O)c1ccc(OC)cc1", "hERG current change (%, negative = inhibition) at 1uM": 21.1}, {"smiles": "CC(=O)c1cccc(NC(=O)CSc2nc(=O)n(CCN3CCOCC3)c3c2CCCC3)c1", "hERG current change (%, negative = inhibition) at 1uM": -2.06}, {"smiles": "CC(C)Cc1nnc(NC(=O)CN2C(=O)C3CCCCC3C2=O)s1", "note": "(centres unmarked)", "hERG current change (%, negative = inhibition) at 1uM": 0.443}, {"smiles": "O=S(=O)(CC(CN1CCCC1)N1CCCC1)c1ccc2ccccc2c1", "note": "(centres unmarked)", "hERG current change (%, negative = inhibition) at 1uM": -2.72}, {"smiles": "CC(C)(C)c1ccc(OCCN2CCCC2)cc1", "hERG current change (%, negative = inhibition) at 1uM": 3.23}, {"smiles": "CC(C)(CCl)C(=O)Nc1ccc(Sc2ccc(F)cc2)cc1", "hERG current change (%, negative = inhibition) at 1uM": 7.93}, {"smiles": "O=C(Nc1ccc(F)cc1)C1CCCN(S(=O)(=O)c2cccc3nonc23)C1", "note": "(centres unmarked)", "hERG current change (%, negative = inhibition) at 1uM": 10.6}, {"smiles": "N#CC1=C(O)C(c2ccccc2)n2c1nc(=O)c1ccccc12", "note": "(centres unmarked)", "hERG current change (%, negative = inhibition) at 1uM": -14.6}, {"smiles": "CC1CC(OP(O)(=S)c2ccc(N(C)C)cc2NC(=O)c2cccs2)CC(C)(C)C1", "note": "(centres unmarked)", "hERG current change (%, negative = inhibition) at 1uM": 9.54}, {"smiles": "COC(=O)c1oc2nc(C)cc(C)c2c1N", "hERG current change (%, negative = inhibition) at 1uM": 4.2}, {"smiles": "COc1ccc(C2=NS(=O)(=O)N(C)C(C(=O)N(C)Cc3ccccc3)=C2)cc1OC", "hERG current change (%, negative = inhibition) at 1uM": 7.11}, {"smiles": "C=CCN1C(=O)/C(=C/c2ccc(OC)cc2)S/C1=N/c1nccs1", "hERG current change (%, negative = inhibition) at 1uM": 6.85}, {"smiles": "O=C(CSc1ncccn1)NC(=O)NCc1ccco1", "hERG current change (%, negative = inhibition) at 1uM": 5.01}, {"smiles": "COC(=O)c1cccc(NC(=O)CN(c2ccc3c(c2)OCO3)S(C)(=O)=O)c1C", "hERG current change (%, negative = inhibition) at 1uM": 10.6}, {"smiles": "CCc1nnc(NC(=O)CN2CCN(c3ccccc3OC)CC2)s1.Cl", "hERG current change (%, negative = inhibition) at 1uM": -10.5}, {"smiles": "CC1CC(=O)c2cn3c(nc2C1)nc1ccccc13", "note": "(centres unmarked)", "hERG current change (%, negative = inhibition) at 1uM": 0.565}, {"smiles": "O=C(NCc1ccccc1)C1CCN(S(=O)(=O)c2cccc3cccnc23)CC1", "hERG current change (%, negative = inhibition) at 1uM": 4.08}, {"smiles": "CC(=O)Nc1ccc(NS(=O)(=O)c2cc(C)sc2C)cc1", "hERG current change (%, negative = inhibition) at 1uM": 5.82}, {"smiles": "CCOC(=O)C1CCN(C(=O)COC(=O)c2cccc(F)c2)CC1", "hERG current change (%, negative = inhibition) at 1uM": 2.2}, {"smiles": "CC12CN3CC(=O)N4CC5(C)CN(CC(C)(C4)C5=O)C(=O)CN(C1)CC(C)(C3)C2=O", "hERG current change (%, negative = inhibition) at 1uM": 17.5}, {"smiles": "O=C(NCCN1CCCCCC1)C1CC(=O)N(CCc2ccccc2)C1", "note": "(centres unmarked)", "hERG current change (%, negative = inhibition) at 1uM": 11.3}, {"smiles": "Cc1ccc(OCCNC(=O)c2cc(-n3cnnc3)ccc2Cl)cc1C", "hERG current change (%, negative = inhibition) at 1uM": 3.63}, {"smiles": "CCCOP(=O)(c1ccc(N(C)C)cc1)C(O)c1cccnc1", "note": "(centres unmarked)", "hERG current change (%, negative = inhibition) at 1uM": 3.22}, {"smiles": "O=C(NCc1ccc(Cl)cc1)C1CCCN(c2cnccn2)C1", "note": "(centres unmarked)", "hERG current change (%, negative = inhibition) at 1uM": -40}, {"smiles": "CCCn1c2ccc(F)cc2c2nnc(SCCN3CCOCC3)nc21", "hERG current change (%, negative = inhibition) at 1uM": 1.29}, {"smiles": "O=C(NCC1(c2ccccc2)CCCC1)c1cccc(Br)c1", "hERG current change (%, negative = inhibition) at 1uM": 12.7}, {"smiles": "COc1ccc(-c2noc(CN(C(=O)c3ccoc3C)C(C)C)n2)cc1", "hERG current change (%, negative = inhibition) at 1uM": 14.8}, {"smiles": "Brc1c(CSc2nc3ccccc3o2)nc2ncccn12", "hERG current change (%, negative = inhibition) at 1uM": -22.5}, {"smiles": "Cc1ccc(NC(=O)CSc2nnc(-c3ccc(S(=O)(=O)N4CCOCC4)cc3)n2C)cc1", "hERG current change (%, negative = inhibition) at 1uM": -14.6}, {"smiles": "CCOc1cccc(-c2nnc3sc(-c4cc(OC)c(OC)c(OC)c4)nn23)c1", "hERG current change (%, negative = inhibition) at 1uM": -3.2}, {"smiles": "CCOC(=O)[C@@H]1[C@H]2COc3cc(OC)ccc3[C@@H]2N2C(=O)N(c3ccc(OC)cc3)C(=O)[C@]12C", "hERG current change (%, negative = inhibition) at 1uM": 11.7}, {"smiles": "O=c1c(Cc2ccccc2)c(O)nc2n1CCS2", "hERG current change (%, negative = inhibition) at 1uM": 17}]}]}
